Screen size: about 310,000 compounds; about 2,200 (0.71%) showed an effect of 50% or more. The effect is printed as a negative number. The list shows a part of the results.
Molecular target: human ether-à-go-go-related gene (hERG) potassium channel (human, UniProt Q12809)
Assay: primary screen, population patch clamp on CHO cells stably expressing hERG

human ether-à-go-go-related gene (hERG) potassium channel, sequence (Q12809 whole entry, looked up): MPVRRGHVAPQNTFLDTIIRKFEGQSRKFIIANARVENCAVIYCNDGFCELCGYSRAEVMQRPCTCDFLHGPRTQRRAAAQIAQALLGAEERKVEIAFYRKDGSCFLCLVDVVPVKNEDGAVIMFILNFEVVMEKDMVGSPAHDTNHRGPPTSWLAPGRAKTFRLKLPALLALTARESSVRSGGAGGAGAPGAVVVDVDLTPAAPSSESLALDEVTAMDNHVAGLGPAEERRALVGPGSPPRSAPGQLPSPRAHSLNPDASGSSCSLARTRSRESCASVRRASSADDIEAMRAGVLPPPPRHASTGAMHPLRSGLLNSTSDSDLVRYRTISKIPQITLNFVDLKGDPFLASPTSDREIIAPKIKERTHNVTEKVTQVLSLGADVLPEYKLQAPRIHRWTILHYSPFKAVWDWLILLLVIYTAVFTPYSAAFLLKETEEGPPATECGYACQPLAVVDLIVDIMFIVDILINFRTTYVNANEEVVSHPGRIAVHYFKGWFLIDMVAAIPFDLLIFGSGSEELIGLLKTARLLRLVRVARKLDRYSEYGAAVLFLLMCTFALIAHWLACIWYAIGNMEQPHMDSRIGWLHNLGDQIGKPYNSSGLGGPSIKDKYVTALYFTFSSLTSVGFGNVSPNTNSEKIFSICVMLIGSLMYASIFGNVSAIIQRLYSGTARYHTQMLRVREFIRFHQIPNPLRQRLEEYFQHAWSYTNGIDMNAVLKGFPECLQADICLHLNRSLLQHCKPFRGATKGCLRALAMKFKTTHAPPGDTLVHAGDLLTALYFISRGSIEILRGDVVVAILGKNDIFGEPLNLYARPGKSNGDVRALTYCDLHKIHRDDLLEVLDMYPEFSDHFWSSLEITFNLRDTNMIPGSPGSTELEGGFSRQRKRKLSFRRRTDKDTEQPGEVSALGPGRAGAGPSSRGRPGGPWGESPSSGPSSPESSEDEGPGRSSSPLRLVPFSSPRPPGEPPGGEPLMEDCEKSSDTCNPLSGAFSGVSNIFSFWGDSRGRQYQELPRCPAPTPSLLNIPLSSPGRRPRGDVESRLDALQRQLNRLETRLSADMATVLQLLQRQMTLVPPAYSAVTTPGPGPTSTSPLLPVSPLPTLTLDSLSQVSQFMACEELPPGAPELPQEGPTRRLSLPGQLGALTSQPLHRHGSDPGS

Compound | hERG current change (%, negative = inhibition) at 1uM [%]
CCn1c2ccccc2c2cc(CN3CCN(Cc4cc(OC)ccc4O)CC3)ccc21.O=C(O)C(=O)O | 9.14
CC1=C(C(=O)Nc2ccccc2)C(c2cccs2)NC(=O)N1 (centres unmarked) | 6.05
Cc1cc2c(c(=O)o1)C1(C(=O)N(C)c3ccccc31)C(C#N)=C(N)O2 (centres unmarked) | 5.81
COc1ccc(NC(=O)C2CC(=O)n3c(nc4ccccc43)N2)cc1 (centres unmarked) | 4.53
CCN(c1ccccc1)c1cc2ccccc2c(=O)[nH]1 | 4.53
COc1cccc(-c2noc(-c3ccc(Br)o3)n2)c1 | 13.4
CN1CCN(C(=O)CSc2nc(-c3ccco3)cc(C(F)(F)F)n2)CC1 | 11.4
Cc1ccccc1OCC(=O)Nn1c(COc2ccccc2)nc2ccccc2c1=O | 4.4
COc1cc(OC)c(NC(=O)C2CCN(S(=O)(=O)c3ccc4c(c3)CC(C)N4C(C)=O)CC2)cc1Cl (centres unmarked) | 9.53
Cc1ccc(C(=O)N/C(=C\c2ccco2)C(=O)NC2CCS(=O)(=O)C2)cc1 (centres unmarked) | 9.68
C/C(=N\NC(=O)c1c(Cl)c(C)nn1C)c1ccc(NC(=O)c2ccncc2)cc1 | 0.881
CCn1c(CNC(=O)c2cc(OC)c(OC)c(OC)c2)cc2ccccc21 | 6.88
Cc1ccc(OCC(=O)NN=C2c3ccccc3-c3ccccc32)cc1 | -12.6
O=C(NCC1CCCO1)Nc1cccc(Cl)c1 (centres unmarked) | 1.27
CCOC(=O)COc1ccc(S(=O)(=O)Nc2ccc(C)cc2)cc1 | -15.9
Cc1ccc(C(=O)Nc2c(C#N)c(C)c(C)n2Cc2ccccc2)cc1 | 10.2
CCOC(=O)C(CC)Sc1cc(C)nc2ccc(OC)cc12 (centres unmarked) | 6.6
Cc1cc(C)n2nc(C(=O)Nc3ccc(N4CCOCC4)cc3)nc2n1 | 6.01
CCN(CC(=O)Nc1ccccc1C(=O)Nc1ccccc1)Cc1nc2ccccc2c(=O)[nH]1 | -49
OCCN(Cc1ccccc1)C(=S)Nc1ccc(Cl)cc1Cl | 19
CN(C)c1cccc(C(=O)NCC(c2ccco2)N(C)C)c1 (centres unmarked) | 6.2
COc1ccc(NC(=O)c2cc3sccc3n2Cc2ccc(F)cc2)cc1OC | 1.61

Compound | hERG current change (%, negative = inhibition) at 1uM [%]
Cc1csc(N/N=C\c2cccnc2)n1 | 2.56
Cc1ccc(NC2CCCN(C(=O)c3ccc(F)cc3)C2)cc1C (centres unmarked) | 11.1
CCOC(=O)C1=C(C)NC(=S)NC1c1cccs1 (centres unmarked) | 15
CN1CCc2ccc(NC(=O)c3ccc(C(F)(F)F)cc3)cc2C1 | 2.88
CCOC(=O)CC(NC(=O)c1cccc2c1C(=O)N(Cc1cccnc1)C2)c1ccc(OCC)c(OC)c1 (centres unmarked) | -3.38
O=C(Cc1c[nH]c2ccccc12)N[C@@H](Cc1c[nH]c2ccccc12)C(=O)O | 8.97
COc1cccc(/C=N/NC(=O)c2ccncc2)c1OC(=O)c1ccc(Br)cc1 | 15.1
O=C(NCc1ccccn1)c1ccc(CS(=O)(=O)Cc2ccc(Cl)cc2)o1 | 10.8
O=C(Nc1ccccc1N1CCOCC1)c1ccc(F)c(S(=O)(=O)N2CCOCC2)c1 | 5.19
Cc1cccc(OC(=O)CN2C(=O)C3C4CCC(C4)C3C2=O)c1C (centres unmarked) | 9.47
Cc1[nH]c2ccccc2c1C(=O)CSC(=S)N1CCCCC1 | -1.04
COc1ccc2c(c1)cc(C)c1nnc(SCC(=O)N(C)c3nc(-c4ccccc4)cs3)n12 | 19
S=C(NCc1ccco1)N1CCN(c2ccccc2Cl)CC1 | 5.55
COc1ccc(/C(C)=N/NC(=O)CCC(=O)Nc2ccc(Cl)cc2Cl)c(OC)c1 | -0.337
CCOc1ccc(S(=O)(=O)N2CCCCCC2)c2ccccc12 | -1.32
CCc1ccc(C(=O)/C=C/Nc2ccc(S(=O)(=O)Nc3onc(C)c3C)cc2)cc1 | 8.64
CCCCn1c(N)c(N(CCOC)C(=O)c2ccc(Cl)c(S(=O)(=O)N3CCCC3)c2)c(=O)[nH]c1=O | 11.4
O=S(=O)(c1cccc2cccc(Cl)c12)N1CCCC1 | 6.88
CC[n+]1c(/C=C/C=C/N(C(C)=O)c2ccccc2)sc2ccccc21.[I-] | -52.2
CCOc1ccc(NC(=O)NNC(=O)c2cc3ccccc3cc2O)cc1 | 5.2
COc1ccc(C(C)=O)cc1COC(=O)CSCC(=O)Nc1ccc(C)cc1 | -4.02
CCCn1c(SCC(=O)Nc2cccc(S(=O)(=O)NC3=NCCCCC3)c2)nc2ccccc2c1=O | -2.57

Compound | hERG current change (%, negative = inhibition) at 1uM [%]
CC(=O)c1ccc(OCCNS(=O)(=O)c2ccc(-n3cnnn3)cc2)cc1 | -10.4
O=C(/C=C/c1ccc(F)cc1)NC(=S)NNC(=O)c1cccnc1 | 10.6
O=C(N/C(=C/c1cccc([N+](=O)[O-])c1)C(=O)N1CCCC1)c1ccccc1 | -0.775
Cc1ccc(S(=O)(=O)NCc2ccc(C(=O)NC3CCC(C)CC3)cc2)cc1 (centres unmarked) | 12.7
CCCn1c(=O)c(C(=O)NCc2ccccc2Cl)c(O)c2ccccc21 | 9.85
Cc1ccc(C(=O)Nc2nnc(-c3ccc(C(C)(C)C)cc3)s2)cc1 | 7.36
Cc1cc(NC(=O)CSc2nnc(COc3cccc(C)c3C)n2C)no1 | 12.2
Cc1cc(C(=O)Nc2ncn(Cc3ccc(F)cc3)n2)ccc1[N+](=O)[O-] | -21.7
Cc1ccc(C(=O)OCCc2sc[n+](Cc3ccccc3)c2C)cc1.[Cl-] | -30
O=C(Nc1ccon1)c1cccc(S(=O)(=O)N2CCCCC2)c1 | 2.16
CC(=O)c1ccc(NCC2COc3ccccc3O2)c([N+](=O)[O-])c1 (centres unmarked) | 7.67
Cc1cc2oc(C(=O)Nc3c(C)n(C)n(-c4ccccc4)c3=O)c(C)c2cc1Cl | -23.5
CCCOc1ccc(/C=C/C(=O)O)cc1OC | 2.04
COC(=O)c1sc(S(=O)(=O)Nc2ccc(C)c(C)c2)c(C(=O)OC)c1C | 13.6
O=C(NCCCn1ccnc1)c1ccc(Cl)c(Cl)c1 | 1.57
O=C(NNC(=S)NC(=O)c1ccccc1)c1cccnc1 | 16.7
Cc1cccc(C(C)C)c1NC(=O)COC(=O)CNS(=O)(=O)c1ccccc1 | 13.8
Cc1cc(C)nc(N2CCC(C(=O)NCCc3ccccc3)CC2)n1 | 12.6
COc1ccc(CNC(=O)CN(Cc2ccc(Cl)cc2)S(C)(=O)=O)cc1 | -8.55
Cc1cc(OCc2nnc(SCC(=O)OC3CCCCC3)o2)ccc1Cl | 2.16
CCc1ccc(N2C(=O)CN(Cc3ccccc3)C2=S)cc1 | 15.8
COc1ccccc1NC(=O)c1nnn(CC(=O)Nc2cccc(SC)c2)c1N | 3.19

Compound | hERG current change (%, negative = inhibition) at 1uM [%]
Cc1nc2scc(C)n2c(=O)c1S(=O)(=O)Nc1ccc(N2CCOCC2)cc1 | 5.65
O=C(CN1C(=O)c2ccccc2C1=O)c1ccc(F)cc1 | 15.2
COc1cc(C(=O)NC2CCCC(C)C2C)ccc1OCC(=O)N1CCOCC1 (centres unmarked) | 15.3
Cc1ccccc1C(=O)NC1CC2CCCC(C1)N2C(=O)Nc1ccccc1 (centres unmarked) | 6.06
Nc1nc(CSc2nnnn2-c2ccc(Cl)cc2)nc(N2CCOCC2)n1 | 11.5
O=C1CSC(=S)N1N1C(=O)c2cccc([N+](=O)[O-])c2C1=O | 5.64
O=C(CSc1ccc(Cl)cc1)NN=C1CCCCCC1 | -1.74
O=C(Nc1ccc2c(c1)OCCO2)c1cc2sccc2n1Cc1ccc(F)cc1 | 2.45
Cc1ccccc1C(=O)NCC(=O)OC(C)C(=O)NCc1ccco1 (centres unmarked) | 11.4
Cc1ccc(CN2C(=O)CCC2C(=O)NCCCN2CCCCC2C)cc1 (centres unmarked) | 7.26
O=C(Nc1cccc(S(=O)(=O)N2CCCC2)c1)c1cc(S(=O)(=O)N2CCOCC2)ccc1F | 2.43
CC(C)CCNC(=O)c1ccc(Cn2c(=S)[nH]c3ccccc3c2=O)cc1 | 10.9
COC(=O)c1sccc1NC(=O)Nc1cc(OC)ccc1OC | -0.927
S=C(Nc1ccccc1)Nc1cccc(Cl)c1Cl | 5.64
COc1ccc(NC(=O)CCc2c(C)nc3nc(CNC(=O)c4cccc(F)c4)nn3c2C)cc1OC | 29.1
O=C(NCCc1c[nH]c2ccccc12)c1ccc2c(c1)OCO2 | 8.47
CCN(CC)c1nc(N)c(C#N)c(CC#N)c1C#N | -0.706
COC(=O)c1sccc1NC(=O)c1ccc(Br)s1 | 18.5
Cc1ccc(NC(=O)N2CCC(O)(c3ccc(Cl)cc3)CC2)cc1 | 11.7
O=C([C@@H]1CCCN1C(=O)c1cccs1)N1CCN(S(=O)(=O)c2ccccc2F)CC1 | -3.57

Source: PMC4336329 (PLoS ONE, 2015)
